{"source": "the supplement of paper PMC7266297", "key": {"[1]": {"tested_on": "KB-3-1", "assay": "growth inhibition relative to DMSO control (SRB); higher = more growth inhibition", "conditions": "1 µM; 72 h"}, "[2]": {"tested_on": "KB-V1", "assay": "growth inhibition relative to DMSO control (SRB); cervical cancer cells: KB-3-1 is the parent and KB-V1 overexpresses MDR1; SRB is the sulforhodamine B stain; higher = more growth inhibition", "conditions": "1 µM; 72 h"}}, "note": "Structures can show the parent of a compound that is named as a salt. The list shows a part of the results. Most values come without repeats; read them as rough.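 Note: Read-out is SRB optical density at 490 nm, with the control being wells given 0.5% DMSO vehicle, and compound added one day after cells were plated.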", "data": [{"compound": "C[C@]12CC[C@@H]3c4ccc(O)cc4CC[C@H]3[C@@H]1CCC2=O", "note": "[Estrone]", "values": [{"measurement": "growth inhibition", "setting": "[1]", "value": 26, "unit": "%"}, {"measurement": "growth inhibition", "setting": "[2]", "value": 11, "unit": "%"}]}, {"compound": "FC(F)(F)c1ccc(/C=C/c2nc(COc3ccc(CCCCn4ccnn4)cc3)co2)cc1", "note": "[Mubritinib (TAK 165)]", "values": [{"measurement": "growth inhibition", "setting": "[1]", "value": 16, "unit": "%"}, {"measurement": "growth inhibition", "setting": "[2]", "value": 62.6, "unit": "%"}]}, {"compound": "Cc1ccc(NC(=O)C2(c3ccc4c(c3)OC(F)(F)O4)CC2)nc1-c1cccc(C(=O)O)c1", "note": "[VX-809 (Lumacaftor)]", "values": [{"measurement": "growth inhibition", "setting": "[1]", "value": 26.5, "unit": "%"}, {"measurement": "growth inhibition", "setting": "[2]", "value": 11, "unit": "%"}]}, {"compound": "CN1CCC(NC(=O)c2cc(-c3c(O)cc(O)cc3Oc3ccc([N+](=O)[O-])cc3)on2)CC1", "values": [{"measurement": "growth inhibition", "setting": "[1]", "value": 64, "unit": "%"}, {"measurement": "growth inhibition", "setting": "[2]", "value": 9.89, "unit": "%"}]}, {"compound": "Nc1ccc(-c2ccc3ncc4ccc(=O)n(-c5cccc(C(F)(F)F)c5)c4c3c2)cn1", "note": "[Torin 2]", "values": [{"measurement": "growth inhibition", "setting": "[1]", "value": 91.4, "unit": "%"}, {"measurement": "growth inhibition", "setting": "[2]", "value": 93.6, "unit": "%"}]}, {"compound": "C[C@@H](NCCCc1cccc(C(F)(F)F)c1)c1cccc2ccccc12", "note": "[Cinacalcet HCl]", "values": [{"measurement": "growth inhibition", "setting": "[1]", "value": "< 0", "unit": "%"}, {"measurement": "growth inhibition", "setting": "[2]", "value": 38.7, "unit": "%"}]}, {"compound": "O=C1CCc2ccc(OCCCCN3CCN(c4cccc(Cl)c4Cl)CC3)cc2N1", "note": "[Aripiprazole]", "values": [{"measurement": "growth inhibition", "setting": "[1]", "value": 42.6, "unit": "%"}, {"measurement": "growth inhibition", "setting": "[2]", "value": 19.6, "unit": "%"}]}, {"compound": "Cc1cc(-c2ccc(CC(=O)Nc3ccc(-c4cccnc4)cc3)cc2)ccn1", "values": [{"measurement": "growth inhibition", "setting": "[1]", "value": 6.41, "unit": "%"}, {"measurement": "growth inhibition", "setting": "[2]", "value": 38.7, "unit": "%"}]}, {"compound": "NC(=O)Nc1sc(-c2ccc(F)cc2)cc1C(N)=O", "values": [{"measurement": "growth inhibition", "setting": "[1]", "value": 28, "unit": "%"}, {"measurement": "growth inhibition", "setting": "[2]", "value": 8, "unit": "%"}]}, {"compound": "CCCC(=O)Nc1ccc(OCC(O)CNC(C)C)c(C(C)=O)c1", "note": "(stereo unspecified) [Acebutolol HCl]", "values": [{"measurement": "growth inhibition", "setting": "[1]", "value": "< 0", "unit": "%"}, {"measurement": "growth inhibition", "setting": "[2]", "value": "< 0", "unit": "%"}]}, {"compound": "CC1=C(C(=O)Nc2cc3cn[nH]c3cc2F)C(c2ccc(C(F)(F)F)cc2)CC(=O)N1", "note": "(stereo unspecified)", "values": [{"measurement": "growth inhibition", "setting": "[1]", "value": 63.2, "unit": "%"}, {"measurement": "growth inhibition", "setting": "[2]", "value": 26.5, "unit": "%"}]}, {"compound": "CCNC(=O)c1noc(-c2cc(C(C)C)c(O)cc2O)c1-c1ccc(CN2CCOCC2)cc1", "values": [{"measurement": "growth inhibition", "setting": "[1]", "value": 91.7, "unit": "%"}, {"measurement": "growth inhibition", "setting": "[2]", "value": 79.7, "unit": "%"}]}, {"compound": "O=C(Nc1ccccc1)Nc1ccc(-c2ccc(C(=O)[C@@H]3CCC[C@H]3C(=O)O)cc2)cc1", "values": [{"measurement": "growth inhibition", "setting": "[1]", "value": "< 0", "unit": "%"}, {"measurement": "growth inhibition", "setting": "[2]", "value": "< 0", "unit": "%"}]}, {"compound": "Cc1csc(-c2nnc(Nc3ccc(Oc4ncccc4-c4ccnc(N)n4)cc3)c3ccccc23)c1", "values": [{"measurement": "growth inhibition", "setting": "[1]", "value": "< 0", "unit": "%"}, {"measurement": "growth inhibition", "setting": "[2]", "value": 20.3, "unit": "%"}]}, {"compound": "CN(C)CCc1c[nH]c2ccc(CS(=O)(=O)N3CCCC3)cc12", "note": "[Almotriptan Malate]", "values": [{"measurement": "growth inhibition", "setting": "[1]", "value": 22.3, "unit": "%"}, {"measurement": "growth inhibition", "setting": "[2]", "value": 22.3, "unit": "%"}]}, {"compound": "COC(=O)C1=C(C)NC(C)=C(C(=O)OCCN2CCN(C(c3ccccc3)c3ccccc3)CC2)C1c1cccc([N+](=O)[O-])c1", "note": "(stereo unspecified) [Manidipine]", "values": [{"measurement": "growth inhibition", "setting": "[1]", "value": 21.6, "unit": "%"}, {"measurement": "growth inhibition", "setting": "[2]", "value": 0.746, "unit": "%"}]}, {"compound": "C#Cc1cccc(Nc2ncnc3cc4c(cc23)OCCOCCOCCO4)c1", "note": "[Icotinib]", "values": [{"measurement": "growth inhibition", "setting": "[1]", "value": "< 0", "unit": "%"}, {"measurement": "growth inhibition", "setting": "[2]", "value": 26.4, "unit": "%"}]}, {"compound": "C=CC(=O)Nc1cccc(Nc2nc(Nc3ccc(Oc4ccnc(C(=O)NC)c4)cc3)ncc2F)c1", "values": [{"measurement": "growth inhibition", "setting": "[1]", "value": 18.8, "unit": "%"}, {"measurement": "growth inhibition", "setting": "[2]", "value": 36.6, "unit": "%"}]}, {"compound": "Nc1nc(N)nc(-c2cc(Cl)ccc2Cl)n1", "note": "[Irsogladine]", "values": [{"measurement": "growth inhibition", "setting": "[1]", "value": 47.8, "unit": "%"}, {"measurement": "growth inhibition", "setting": "[2]", "value": 23.5, "unit": "%"}]}, {"compound": "CCOc1ccc(Cc2cc([C@@H]3O[C@H](CO)[C@@H](O)[C@H](O)[C@H]3O)ccc2Cl)cc1", "note": "[Dapagliflozin]", "values": [{"measurement": "growth inhibition", "setting": "[1]", "value": 23.8, "unit": "%"}, {"measurement": "growth inhibition", "setting": "[2]", "value": 10.6, "unit": "%"}]}, {"compound": "CN1CC[C@H](c2c(O)cc(O)c3c(=O)cc(-c4ccccc4Cl)oc23)[C@H](O)C1", "note": "[Flavopiridol HCl]", "values": [{"measurement": "growth inhibition", "setting": "[1]", "value": 100, "unit": "%"}, {"measurement": "growth inhibition", "setting": "[2]", "value": 98, "unit": "%"}]}, {"compound": "O=C1c2ccc(Nc3ccc(F)cc3F)cc2CCc2ccc(OC[C@H](O)CO)cc21", "note": "[Skepinone-L]", "values": [{"measurement": "growth inhibition", "setting": "[1]", "value": 5.75, "unit": "%"}, {"measurement": "growth inhibition", "setting": "[2]", "value": "< 0", "unit": "%"}]}, {"compound": "Cc1ccc(NC(=O)c2cccc(N(C)C)c2)cc1NC(=O)c1ccc(O)cc1", "values": [{"measurement": "growth inhibition", "setting": "[1]", "value": "< 0", "unit": "%"}, {"measurement": "growth inhibition", "setting": "[2]", "value": "< 0", "unit": "%"}]}, {"compound": "O=C(Nc1ccc(S(=O)(=O)Nc2ccccc2Cl)c(Cl)c1)c1ccccn1", "values": [{"measurement": "growth inhibition", "setting": "[1]", "value": 44.2, "unit": "%"}, {"measurement": "growth inhibition", "setting": "[2]", "value": 4.32, "unit": "%"}]}, {"compound": "O=c1n(CCCN2CCN(c3cccc(Cl)c3)CC2)nc2ccccn12", "note": "[Trazodone HCl]", "values": [{"measurement": "growth inhibition", "setting": "[1]", "value": 27.5, "unit": "%"}, {"measurement": "growth inhibition", "setting": "[2]", "value": 13.8, "unit": "%"}]}, {"compound": "COc1cc2c(cc1OC)CC(=O)N(CCCN(C)C[C@H]1Cc3cc(OC)c(OC)cc31)CC2", "note": "[Ivabradine HCl]", "values": [{"measurement": "growth inhibition", "setting": "[1]", "value": 21.6, "unit": "%"}, {"measurement": "growth inhibition", "setting": "[2]", "value": 19.9, "unit": "%"}]}, {"compound": "Cc1ccc(NC(=O)c2ccc(CN3CCN(C)CC3)cc2)cc1Nc1nccc(-c2cccnc2)n1", "note": "[Imatinib (STI571)]", "values": [{"measurement": "growth inhibition", "setting": "[1]", "value": 25.1, "unit": "%"}, {"measurement": "growth inhibition", "setting": "[2]", "value": 9.57, "unit": "%"}]}, {"compound": "CN(C)CC(c1ccc(O)cc1)C1(O)CCCCC1", "note": "(stereo unspecified) [Desvenlafaxine Succinate]", "values": [{"measurement": "growth inhibition", "setting": "[1]", "value": 9.32, "unit": "%"}, {"measurement": "growth inhibition", "setting": "[2]", "value": 7.06, "unit": "%"}]}, {"compound": "Nc1ncnc2n[nH]c(Nc3ccc(F)cc3)c12", "values": [{"measurement": "growth inhibition", "setting": "[1]", "value": 56.1, "unit": "%"}, {"measurement": "growth inhibition", "setting": "[2]", "value": 1.85, "unit": "%"}]}, {"compound": "O=C(NC[C@H](O)CO)c1ccncc1Nc1ccc(I)cc1F", "values": [{"measurement": "growth inhibition", "setting": "[1]", "value": 45.6, "unit": "%"}, {"measurement": "growth inhibition", "setting": "[2]", "value": 34.2, "unit": "%"}]}, {"compound": "COc1ccc([C@H]2CNC(=O)C2)cc1OC1CCCC1", "note": "[S- (+)-Rolipram]", "values": [{"measurement": "growth inhibition", "setting": "[1]", "value": "< 0", "unit": "%"}, {"measurement": "growth inhibition", "setting": "[2]", "value": 47.7, "unit": "%"}]}, {"compound": "N#CC[C@H](C1CCCC1)n1cc(-c2ncnc3[nH]ccc23)cn1", "values": [{"measurement": "growth inhibition", "setting": "[1]", "value": 15, "unit": "%"}, {"measurement": "growth inhibition", "setting": "[2]", "value": 35.1, "unit": "%"}]}, {"compound": "Cc1cccc(Nc2ccccc2C(=O)O)c1C", "note": "[Mefenamic Acid]", "values": [{"measurement": "growth inhibition", "setting": "[1]", "value": 33.6, "unit": "%"}, {"measurement": "growth inhibition", "setting": "[2]", "value": 9.32, "unit": "%"}]}]}
